According to paper PMC6919601, “Identification of Plasmodium dipeptidyl aminopeptidase allosteric inhibitors by high throughput screening” (PLoS ONE, 2019):
Out of some 110,000 compounds screened, about 230 (0.21%) showed an effect of 50% or more. The list shows a part of the results.

biological target: DPAP1 (Plasmodium falciparum, UniProt Q8IIJ9); test: primary screen, percent inhibition; read by cleavage of a fluorogenic dipeptide substrate; higher = more effect of the substance; design: species or system P. falciparum D10 trophozoite lysates; single well
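Also: 30 min substrate incubation versus DMSO and 10 µM JCP410 controls.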

Sequence of DPAP1 (Q8IIJ9 whole entry, looked up): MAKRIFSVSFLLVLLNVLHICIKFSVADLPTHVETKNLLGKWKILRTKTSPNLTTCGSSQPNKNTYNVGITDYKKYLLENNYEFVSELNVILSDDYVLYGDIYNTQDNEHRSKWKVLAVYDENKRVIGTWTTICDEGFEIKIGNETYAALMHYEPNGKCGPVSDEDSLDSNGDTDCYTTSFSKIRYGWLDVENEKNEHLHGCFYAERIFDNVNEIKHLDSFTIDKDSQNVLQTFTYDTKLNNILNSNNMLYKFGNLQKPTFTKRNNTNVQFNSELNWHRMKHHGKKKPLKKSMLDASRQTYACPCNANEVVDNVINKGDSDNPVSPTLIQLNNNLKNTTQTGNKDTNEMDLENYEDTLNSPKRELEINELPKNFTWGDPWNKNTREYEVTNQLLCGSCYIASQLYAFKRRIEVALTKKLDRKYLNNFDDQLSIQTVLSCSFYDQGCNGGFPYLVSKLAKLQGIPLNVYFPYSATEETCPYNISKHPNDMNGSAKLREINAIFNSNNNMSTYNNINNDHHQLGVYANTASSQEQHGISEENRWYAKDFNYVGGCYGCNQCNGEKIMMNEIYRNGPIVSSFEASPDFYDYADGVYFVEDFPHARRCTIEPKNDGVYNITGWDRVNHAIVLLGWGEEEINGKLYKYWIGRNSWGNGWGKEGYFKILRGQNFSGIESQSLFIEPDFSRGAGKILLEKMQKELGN

SMILES | % Inhibition @ 10 uM [%]
N#Cc1ccc(NC(=O)C2c3ccccc3Oc3ccccc32)cc1Cl | 5.05
CSc1nsc(NC(=O)OCc2ccc(Cl)cc2)n1 | -5.72
Cc1ccc2cc(C)c(NCCO)nc2c1 | 5
Nc1[nH]ncc1-c1ccc(-c2ccccc2)cc1 | -6.67
CCN1CCN(c2nn3c(=O)c4c5c(sc4nc3c3ccccc23)CCCC5)CC1 | 9.09
COc1cc(C2Nc3ccccc3N=C3CC(c4cccs4)CC(O)=C32)cc(OC)c1O (centres unmarked) | -2.77
CS(=O)(=O)N(CC(=O)N1CCN(c2ccccc2F)CC1)C1CCCCC1 | -2.74
CC(C)(C)c1ccc(-c2nc(-c3nonc3N)no2)cc1 | -2.68
O=C(COc1ccc(Cl)cc1Cl)Nc1cccc(C(F)(F)F)c1 | -5.62
CCN(CC)c1ccc(/C=C2\C(=O)N(c3nnc(C)c(O)n3)N=C2C)cc1 | 3.61
COCCCNc1ncnc2c1cnn2C | 3.65
CCc1ccc(CNC(=O)CCC(=O)N2CCSc3ncccc32)cc1 | 0.687
O=C(c1ccc2ccccc2c1)N1CCCC1 | 0.215
O=C(O)CCNC(=O)/C(=C/c1ccccc1)NC(=O)c1ccco1 | -1.52
O=C1ON=C(c2ccccc2)/C1=C/c1ccc(O)c(O)c1 | 0.222
O=C(NCc1cccs1)C1CCN(S(=O)(=O)N2CCC3(CC2)OCCO3)CC1 | 3.79
CC1=C(C(=O)c2ccccc2)C(NC(=O)c2ccc(F)cc2)(C(F)(F)F)C(=O)N1Cc1ccccc1 (centres unmarked) | -2.63
CCCN1C(C(=O)c2ccccc2)=C(OC(=O)c2ccccc2Cl)c2ccccc2S1(=O)=O | -2.99
COc1cccc(C(=O)Nc2nnc(CCS(=O)(=O)c3ccc4ccccc4c3)s2)c1 | 4.54
CC(=O)c1ccc(N2CCN(Cc3sccc3C)CC2)cc1 | -1.48
CCc1sc(NC(=O)CCC(=O)O)nc1-c1cc2ccccc2oc1=O | 3.7
O=C(O)/C=C/C(=O)Nc1cccc2c(NC(=O)/C=C/C(=O)O)cccc12 | 5.53
CC1CN(C)CC(C)(C)C1(O)c1ccccc1 (centres unmarked) | 4.54
C=CCNC(=O)/C(C#N)=C/c1c(Oc2ccccc2)nc2c(C)cccn2c1=O | 2
COc1cc(/C=C2\C(=O)ON=C2C)cc(OC)c1OC | 1.58
CCn1c(C(C)NC(=O)c2ccccc2)nc2ccccc21 (centres unmarked) | 17

SMILES | % Inhibition @ 10 uM [%]
COc1ccc(Br)cc1C1C2=C(O)CC(C)(C)CC2=Nc2nc(SC)nn21 (centres unmarked) | -3.37
c1nc2cc(Cc3ccc4[nH]cnc4c3)ccc2[nH]1 | 0.628
O=C(Nc1cccc(C(F)(F)F)c1)NC1(c2ccccc2)CC1 | 1.93
COc1ccc(-c2nc(CS(=O)(=O)CC(=O)NCCN(C)C)c(C)o2)cc1 | -0.138
COc1ccc(-c2nn(CCC(=O)NCc3cccs3)c3nc(C)cc(C)c23)c(OC)c1 | 2.39
O=C1NN=C(c2ccccc2)CC1c1c[nH]c2ccccc12 (centres unmarked) | -3.62
CCOCCCNC(=O)Cn1cnc2onc(C)c2c1=O | -1.79
CC(C)CNC(=O)c1ccc(C(=O)NCC(C)C)cc1 | 1.64
c1ccc(C2=NN(c3ccccc3)N(c3ccccc3)N2)cc1 | -0.744
CCn1c2ccccc2c2cc(CNc3ccccc3C)ccc21 | -10.6
Cc1ccc(S(=O)(=O)NCc2ccc(C(=O)N3CCN(c4ncccn4)CC3)cc2)cc1 | 0.718
O=C(NCc1ccccc1)/C(=C/c1cc(-c2ccccc2)nn1-c1ccccc1)NC(=O)c1ccccc1 | -5.38
COc1ccc2cc3c(N)nn(C(=O)c4ccco4)c3nc2c1 | 2.19
COc1ccc2c(c1)nc(CN1CCOCC1)n2C | 0.883
COc1ccccc1-c1cc(C(=O)Nc2cccnc2)no1 | 1.37
Cc1noc(/C=C/c2cccs2)c1S(=O)(=O)N1CCC(C(=O)NCc2ccc(F)cc2)CC1 | -1.28
Cc1ccc(-c2cc(C(F)(F)F)n3nc(C(=O)NCc4cnn(C)c4C)cc3n2)cc1 | -8.23
N#C/C(=C/C=C/c1ccccc1)c1nc(-c2ccc(Br)cc2)cs1 | 3.53
CC1CC2=C(CC1COC(=O)Nc1ccccc1)C(C)(C)CCC2 (centres unmarked) | 2.26
O=C(NCCO)C1CCN(S(=O)(=O)c2ccccc2)CC1 | 0.147
CCOc1ccc(CCNCc2c(C(=O)O)c(C)n(Cc3cccc(Cl)c3)c2C)cc1OCC | 2.99
Cc1ccc(-n2nnc(-c3nsc(NC(=O)c4cccs4)n3)c2C)cc1Cl | -0.127
O=C(O)C1CSC2(CCCCC2)N1 (centres unmarked) | 6.4
c1ccc2cc(OCCCCn3ccnc3)ccc2c1 | -3.15
COc1ccc(C2=NC3(CCN(S(=O)(=O)c4ccc(F)cc4)CC3)N=C2SC)cc1 | -2.5
CC(=O)Nc1nc(C)c(-c2csc(NCc3ccccc3)n2)s1 | 6.27

SMILES | % Inhibition @ 10 uM [%]
Cc1cc(Cl)ccc1OCCCCCN1CCNCC1 | -7.5
CN1CCN(CC(O)c2ccccc2)CC1 (centres unmarked) | -0.436
CC1=CC(C)(C)N(C(=O)CN2C(=O)c3ccccc3C2=O)c2cc(C)ccc21 | -14.6
Fc1cccc(CSc2nc3cccnc3[nH]2)c1 | 0.693
CC(C)Oc1ccccc1C1CC(=O)Nc2cc3c(cc21)OCO3 (centres unmarked) | -1.28
CCCN1C(=O)C(O)(CC(=O)c2ccc3ccccc3c2)c2cc(Br)ccc21 (centres unmarked) | 5.07
O=C(C1CC(c2ccc(F)cc2)=NO1)N1CCN(C(c2ccccc2)c2ccccc2)CC1 (centres unmarked) | -0.431
COc1ccc(-n2nc3c(c2NC(=O)c2c(F)cccc2F)CS(=O)(=O)C3)cc1 | -0.0419
CCC(Sc1nc2cccnc2[nH]1)C(=O)NCCc1ccccc1 (centres unmarked) | -0.35
COCCCN1C(=O)C(O)=C(C(=O)c2ccccc2)C1c1cc(OC)ccc1OC (centres unmarked) | -0.178
CCN1CC2=C(OC(N)=C(C#N)C2c2cccc(C)c2)/C(=C/c2cccc(C)c2)C1 (centres unmarked) | -2.46
Cc1cc(C)c2oc(-c3cccc(N)c3)nc2c1 | -1.22
COc1cccc(N2C(=O)C3C(c4ccc(C)cc4)OC4(C(=O)c5ccccc5C4=O)C3C2=O)c1 (centres unmarked) | -1.48
Cc1ccc(N(CC(=O)Nc2cccnc2)S(C)(=O)=O)c(C)c1 | 2.4
Cc1ccc(-c2cc3nc(-c4ccccc4)cc(C)n3n2)cc1 | -0.597
O=c1oc2ccccc2cc1NCc1ccccc1O | 1.62
COc1ccc(CCNCc2ccccc2C(F)(F)F)cc1 | -9.04
COc1ccc(N(Cc2ccc(F)cc2)C(=O)c2ccc(Br)cc2)cc1 | 3.31
Cc1ccc(CCNCc2c(C(=O)O)n(Cc3ccccc3C)c3cc(C)ccc23)cc1 | 5.61
CCOC(=O)N1CCN(C(=O)c2sc3nc(-c4ccc(F)cc4)cn3c2C)CC1 | -5.58
O=C(O)/C=C/C(=O)Nc1ccccc1C(=O)Nc1ccccc1 | 4.16
COCCn1c(Cc2cccn2C)nnc1SCC(=O)Nc1cc(C)on1 | 3.6
O=C(CCCOc1ccc(Cl)cc1Cl)Nc1ccccc1 | -0.865
Cc1cccc(N2C(=O)CC(Nc3ccc(F)cc3)C2=O)c1 (centres unmarked) | 0.163
c1ccc(C2CCC(NCCc3c[nH]cn3)CC2)cc1 (centres unmarked) | -3.6
CN1C(=O)C(C(=O)N(Cc2ccccc2)Cc2ccccc2)C2CC1(C)Oc1ccccc12 (centres unmarked) | 2.55

SMILES | % Inhibition @ 10 uM [%]
Cc1ccccc1C1C=C(c2ccc(Br)s2)Nc2ncnn21 (centres unmarked) | 3.12
CCCCN1C(=O)C(NS(=O)(=O)c2ccc(C)cc2)(C(F)(F)F)C2=C1CC(C)(C)CC2=O (centres unmarked) | -5.2
COc1ccccc1CCNC(=O)CSc1ccc(-c2ccccn2)nn1 | -0.538
CN1CN=C2SC3(COC(c4ccncc4)OC3)C(=O)N2C1 (centres unmarked) | 6.22
CC1(C)Cc2c(sc3ncn4nc(COc5ccc(Cl)cc5)nc4c23)C(C)(C)N1 | -0.467
Cc1ccccc1CN(C)C1CCN(C)CC1 | 3.16
NC(=O)NC(CC(=O)O)c1ccccc1 (centres unmarked) | 1.7
Fc1cccc(CN2CCN(c3ccccn3)CC2)c1 | -1.92
Brc1ccccc1-c1nc2c3c4c(sc3ncn2n1)CCCC4 | 6.42
NC(=O)COc1ccc(Br)cc1 | -9.75
CC(=O)CCc1c(C)nc2ccc(C)cc2c1Cl | 6.06
Cc1csc(NC(=O)CSc2nsc(SCC(=O)Nc3nc(C)cs3)c2C#N)n1 | -4.6
C=C(C)c1cccc(C(C)(C)NC(=O)N2CCN(C/C=C/c3ccccc3)CC2)c1 | -0.0626
CN1CCC(OC(=O)c2cccc(F)c2)CC1 | -8.42
CCn1cc(-c2cc(C(=O)O)c3ccccc3n2)c(C)n1 | -1.28
COc1ccc(Br)cc1C1C2=C(O)CCCC2=Nc2nc3ccccc3n21 (centres unmarked) | 3.32
CCc1c(C)nn2c1n1nc(C)c(CC)c1n1nc(C)c(CC)c21 | -5.46
CCCCNC(=O)Cn1nc(Cc2ccncc2)c2ccccc2c1=O | 7.96
CCCn1c(CCNC(=O)c2cc(OC)c(OC)c(OC)c2)nc2ccccc21 | 2.83
COc1ccc(OC)c(CN2CCN(Cc3cccc(Br)c3)CC2)c1 | -2.3
O=C(CSc1nnc2c(n1)[nH]c1ccccc12)Nc1ncc(C(F)(F)F)cc1Cl | 0.503
Cc1ccc(S(=O)(=O)NCC2CCC(C(=O)NC3CCC(C)CC3)CC2)cc1 (centres unmarked) | 0.718
CN(C)C1(c2nnnn2C(/C=C\c2ccc(Cl)cc2Cl)C(C)(C)C)CCCCC1 (centres unmarked) | -4.16
